Where two headings read alike, the source gives them in different places.
B1: Interferon Gamma: Interferon Gamma, used at 10 ng/ml on the cells (protein, UniProt P01579 24-161, looked up)
Interferon gamma: QDPYVKEAENLKKYFNAGHSDVADNGTLFLGILKNWKEESDRKIMQSQIVSFYFKLFKNFKDDQSIQKSVETIKEDMNVKFFNSNKKKRDDFEKLTNYSVTDLNVQRKAIHELIQVMAELSPAAKTGKRKRSQMLFRG

Tested on: HLA II on tumor associated monocyte like-cells
Conditions: average of 10 replicates

Molecule | expression of HLA II by flow cytometry, Average (24 Hours) | expression of HLA II by flow cytometry, Average (48 Hours) | expression of HLA II by flow cytometry, Average (96 Hours)
CCCC(CCC)C(=O)O [Valproic Acid] | 626.0 | 786.0 | 3853.6
B1 | 918.1 |  | 

From patent US20240165204A1, “MODULATION OF TUMOR MICROENVIRONMENT TO AUGMENT EFFICACY OF IMMUNOTHERAPY” (Regen Biopharma, Inc., priority 2022, published 2024)
